Patent US6946447B2, “MDM2-specific antisense oligonucleotides” (Hybridon, Inc., priority 1997, dated 2005)
Strand notation (5' to 3'): a small letter for the sugar, then the base; units joined by * are phosphorothioate-linked, units joined directly phosphodiester-linked; [ ] holds rarer units or linkages, { } end groups; capitals alone tell only the bases. d = 2'-deoxy (DNA)

Test system: p53
Experiment: p53-responsive BP100-luciferase reporter in JAR cells
Assay type: cell-based, human

Compound | induction of p53 activity among the initial antisense oligonucleotides tested | activation of the p53 reporter (JAR BP100-luc, 48 h, AS5 200 nM, CPT alone, AS5 alone or co-incubation)
AS7: antisense oligonucleotide SEQ ID NO:29, 5′-TGAAACTGAATCCTGATCCA-3′ (DNA dT*dG*dA*dA*dA*dC*dT*dG*dA*dA*dT*dC*dC*dT*dG*dA*dT*dC*dC*dA) | most effective | 
CC[C@@]1(O)C(=O)OCc2c1cc1n(c2=O)Cc2cc3ccccc3nc2-1 [CPT, camptothecin] |  | 3-4 fold
